# The list shows a part of the results.
# Experiments:
# Assay in all cases: glycan array binding signal (z-score within array); higher = stronger binding
# Conditions in all cases: glycan notation: IUPAC condensed, linker removed; mutation: D22R
# [1] = target: GlcNAc(b1-3)Gal(b1-3)GalNAc
# Outline: (§1)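 The Consortium for Functional Glycomics database supplied 3228 glycan arrays, of which those lacking an available protein sequence were dropped. The binding signal, a within-array Z-score, was averaged across arrays of the same protein sequence and across linkers. Negative scores can be read as non-binding.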
# GlcNAc(b1-3)Gal(b1-4)Glc = target: GlcNAc(b1-3)Gal(b1-4)Glc
# Outline: as §1
# [2] = target: GlcNAc(b1-3)Gal(b1-4)GlcNAc
# Outline: as §1
# [3] = target: GlcNAc(b1-3)Gal(b1-4)GlcNAc(b1-2)Man(a1-3)[GlcNAc(b1-3)Gal(b1-4)GlcNAc(b1-2)Man(a1-6)]Man(b1-4)GlcNAc(b1-4)GlcNAc
# Outline: as §1
# [4] = target: GlcNAc(b1-3)Gal(b1-4)GlcNAc(b1-2)Man(a1-3)[GlcNAc(b1-3)Gal(b1-4)GlcNAc(b1-2)Man(a1-6)]Man(b1-4)GlcNAc(b1-4)[Fuc(a1-6)]GlcNAc
# Outline: as §1
# [5] = target: GlcNAc(b1-3)Gal(b1-4)GlcNAc(b1-2)[GlcNAc(b1-3)Gal(b1-4)GlcNAc(b1-6)]Man(a1-6)[GlcNAc(b1-3)Gal(b1-4)GlcNAc(b1-2)Man(a1-3)]Man(b1-4)GlcNAc(b1-4)GlcNAc
# Outline: as §1
# [6] = target: GlcNAc(b1-3)Gal(b1-4)GlcNAc(b1-3)Gal(b1-4)GlcNAc
# Outline: as §1
# [7] = target: GlcNAc(b1-3)Gal(b1-4)GlcNAc(b1-3)Gal(b1-4)GlcNAc(b1-2)Man(a1-3)[GlcNAc(b1-3)Gal(b1-4)GlcNAc(b1-3)Gal(b1-4)GlcNAc(b1-2)Man(a1-6)]Man(b1-4)GlcNAc(b1-4)GlcNAc
# Outline: as §1
# [8] = target: GlcNAc(b1-3)Gal(b1-4)GlcNAc(b1-3)Gal(b1-4)GlcNAc(b1-2)Man(a1-3)[GlcNAc(b1-3)Gal(b1-4)GlcNAc(b1-3)Gal(b1-4)GlcNAc(b1-2)Man(a1-6)]Man(b1-4)GlcNAc(b1-4)[Fuc(a1-6)]GlcNAc
# Outline: as §1
# [9] = target: GlcNAc(b1-3)Gal(b1-4)GlcNAc(b1-3)Gal(b1-4)GlcNAc(b1-2)[GlcNAc(b1-3)Gal(b1-4)GlcNAc(b1-3)Gal(b1-4)GlcNAc(b1-6)]Man(a1-6)[GlcNAc(b1-3)Gal(b1-4)GlcNAc(b1-3)Gal(b1-4)GlcNAc(b1-2)Man(a1-3)]Man(b1-4)GlcNAc(b1-4)[Fuc(a1-6)]GlcNAc
# Outline: as §1
# [10] = target: GlcNAc(b1-3)Gal(b1-4)GlcNAc(b1-3)Gal(b1-4)GlcNAc(b1-3)Gal(b1-4)GlcNAc(b1-2)Man(a1-3)[GlcNAc(b1-3)Gal(b1-4)GlcNAc(b1-3)Gal(b1-4)GlcNAc(b1-3)Gal(b1-4)GlcNAc(b1-2)Man(a1-6)]Man(b1-4)GlcNAc(b1-4)GlcNAc
# Outline: as §1
# [11] = target: GlcNAc(b1-3)Gal(b1-4)GlcNAc(b1-3)Gal(b1-4)GlcNAc(b1-3)Gal(b1-4)GlcNAc(b1-2)Man(a1-3)[GlcNAc(b1-3)Gal(b1-4)GlcNAc(b1-3)Gal(b1-4)GlcNAc(b1-3)Gal(b1-4)GlcNAc(b1-2)Man(a1-6)]Man(b1-4)GlcNAc(b1-4)[Fuc(a1-6)]GlcNAc
# Outline: as §1
# [12] = target: GlcNAc(b1-3)Gal(b1-4)GlcNAc(b1-3)Gal(b1-4)GlcNAc(b1-3)Gal(b1-4)GlcNAc(b1-2)[GlcNAc(b1-3)Gal(b1-4)GlcNAc(b1-3)Gal(b1-4)GlcNAc(b1-3)Gal(b1-4)GlcNAc(b1-6)]Man(a1-6)[GlcNAc(b1-3)Gal(b1-4)GlcNAc(b1-3)Gal(b1-4)GlcNAc(b1-3)Gal(b1-4)GlcNAc(b1-2)Man(a1-3)]Man(b1-4)GlcNAc(b1-4)[Fuc(a1-6)]GlcNAc
# Outline: as §1
# [13] = target: GlcNAc(b1-3)Gal(b1-4)GlcNAc(b1-3)Gal(b1-4)GlcNAc(b1-3)Gal(b1-4)GlcNAc(b1-3)Gal(b1-4)GlcNAc(b1-2)Man(a1-3)[GlcNAc(b1-3)Gal(b1-4)GlcNAc(b1-3)Gal(b1-4)GlcNAc(b1-3)Gal(b1-4)GlcNAc(b1-3)Gal(b1-4)GlcNAc(b1-2)Man(a1-6)]Man(b1-4)GlcNAc(b1-4)GlcNAc
# Outline: as §1
# [14] = target: GlcNAc(b1-3)Gal(b1-4)GlcNAc(b1-3)Gal(b1-4)GlcNAc(b1-3)Gal(b1-4)GlcNAc(b1-3)Gal(b1-4)GlcNAc(b1-2)Man(a1-3)[GlcNAc(b1-3)Gal(b1-4)GlcNAc(b1-3)Gal(b1-4)GlcNAc(b1-3)Gal(b1-4)GlcNAc(b1-3)Gal(b1-4)GlcNAc(b1-2)Man(a1-6)]Man(b1-4)GlcNAc(b1-4)[Fuc(a1-6)]GlcNAc
# Outline: as §1
# [15] = target: GlcNAc(b1-3)Gal(b1-4)GlcNAc(b1-3)Gal(b1-4)GlcNAc(b1-3)Gal(b1-4)GlcNAc(b1-3)Gal(b1-4)GlcNAc(b1-2)[GlcNAc(b1-3)Gal(b1-4)GlcNAc(b1-3)Gal(b1-4)GlcNAc(b1-3)Gal(b1-4)GlcNAc(b1-3)Gal(b1-4)GlcNAc(b1-6)]Man(a1-6)[GlcNAc(b1-3)Gal(b1-4)GlcNAc(b1-3)Gal(b1-4)GlcNAc(b1-3)Gal(b1-4)GlcNAc(b1-3)Gal(b1-4)GlcNAc(b1-2)Man(a1-3)]Man(b1-4)GlcNAc(b1-4)[Fuc(a1-6)]GlcNAc
# Outline: as §1
# [16] = target: GlcNAc(b1-3)Gal(b1-4)GlcNAc(b1-3)Gal(b1-4)GlcNAc(b1-3)GalNAc
# Outline: as §1
# [17] = target: GlcNAc(b1-3)Gal(b1-4)GlcNAc(b1-3)GalNAc
# Outline: as §1
# [18] = target: GlcNAc(b1-3)Gal(b1-4)GlcNAc(b1-3)[GlcNAc(b1-3)Gal(b1-4)GlcNAc(b1-3)]GalNAc
# Outline: as §1
# [19] = target: GlcNAc(b1-3)Gal(b1-4)GlcNAc(b1-6)[Gal(b1-3)]GalNAc
# Outline: as §1
# [20] = target: GlcNAc(b1-3)Gal(b1-4)GlcNAc(b1-6)[GlcNAc(b1-3)Gal(b1-3)]GalNAc
# Outline: as §1
# [21] = target: GlcNAc(b1-3)Gal(b1-4)GlcNAc(b1-6)[GlcNAc(b1-3)]Gal(b1-4)GlcNAc
# Outline: as §1
# GlcNAc(b1-3)GalNAc = target: GlcNAc(b1-3)GalNAc
# Outline: as §1
# GlcNAc(b1-3)Man = target: GlcNAc(b1-3)Man
# Outline: as §1
# [22] = target: GlcNAc(b1-3)[GlcNAc(b1-4)][GlcNAc(b1-6)]GlcNAc
# Outline: as §1
# [23] = target: GlcNAc(b1-3)[GlcNAc(b1-6)]Gal(b1-4)GlcNAc
# Outline: as §1
# [24] = target: GlcNAc(b1-3)[GlcNAc(b1-6)]GalNAc
# Outline: as §1
# [25] = target: GlcNAc(b1-4)Gal(b1-4)GlcNAc
# Outline: as §1
# GlcNAc(b1-4)GlcNAc = target: GlcNAc(b1-4)GlcNAc
# Outline: as §1
# [26] = target: GlcNAc(b1-4)GlcNAc(b1-4)GlcNAc
# Outline: as §1
# [27] = target: GlcNAc(b1-4)GlcNAc(b1-4)GlcNAc(b1-4)GlcNAc(b1-4)GlcNAc
# Outline: as §1
# [28] = target: GlcNAc(b1-4)GlcNAc(b1-4)GlcNAc(b1-4)GlcNAc(b1-4)GlcNAc(b1-4)GlcNAc
# Outline: as §1
# [29] = target: GlcNAc(b1-4)[GlcNAc(b1-6)]GalNAc
# Outline: as §1
# [30] = target: GlcNAc(b1-6)Gal(b1-4)GlcNAc
# Outline: as §1
# GlcNAc(b1-6)GalNAc = target: GlcNAc(b1-6)GalNAc
# Outline: as §1
# [31] = target: GlcNAc6S(b1-3)Gal(b1-4)GlcNAc
# Outline: as §1
# Kdn(a2-3)Gal(b1-3)GalNAc = target: Kdn(a2-3)Gal(b1-3)GalNAc
# Outline: as §1
# Kdn(a2-3)Gal(b1-3)GlcNAc = target: Kdn(a2-3)Gal(b1-3)GlcNAc
# Outline: as §1
# Kdn(a2-3)Gal(b1-4)Glc = target: Kdn(a2-3)Gal(b1-4)Glc
# Outline: as §1
# Kdn(a2-3)Gal(b1-4)GlcNAc = target: Kdn(a2-3)Gal(b1-4)GlcNAc
# Outline: as §1
# [32] = target: Kdn(a2-3)Gal(b1-4)[Fuc(a1-3)]GlcNAc
# Outline: as §1
# Kdn(a2-6)Gal(b1-4)GlcNAc = target: Kdn(a2-6)Gal(b1-4)GlcNAc
# Outline: as §1
# [33] = target: Man(a1-2)Man(a1-2)Man(a1-3)Man
# Outline: as §1
# [34] = target: Man(a1-2)Man(a1-2)Man(a1-6)[Man(a1-3)]Man
# Outline: as §1
# Man(a1-2)Man(a1-3)Man = target: Man(a1-2)Man(a1-3)Man
# Outline: as §1
binder,measurement,setting,value
MpL2 (Macrolepiota procera) (protein) MSTQVSSGQTYKITNVKAGTVIRLSGEDNKSIIGYPYHSGKNQQWTFNWTGKAWTLRSASSGSYLGIEGTPADGTRLVAVNDPFEWHIWRDEANENAFRIFVPFTNYNLDLSGYGDTTPGTPVQLWWTWEGLHQTWTIDRP,glycan array binding signal (z-score),[1],-0.16
same,glycan array binding signal (z-score),GlcNAc(b1-3)Gal(b1-4)Glc,0.049
same,glycan array binding signal (z-score),[2],-0.122
same,glycan array binding signal (z-score),[3],0.092
same,glycan array binding signal (z-score),[4],0.441
same,glycan array binding signal (z-score),[5],1.11
same,glycan array binding signal (z-score),[6],-0.221
same,glycan array binding signal (z-score),[7],1.25
same,glycan array binding signal (z-score),[8],0.874
same,glycan array binding signal (z-score),[9],1.56
same,glycan array binding signal (z-score),[10],0.573
same,glycan array binding signal (z-score),[11],0.702
same,glycan array binding signal (z-score),[12],1.51
same,glycan array binding signal (z-score),[13],0.496
same,glycan array binding signal (z-score),[14],-0.377
same,glycan array binding signal (z-score),[15],0.58
same,glycan array binding signal (z-score),[16],0.292
same,glycan array binding signal (z-score),[17],-0.102
same,glycan array binding signal (z-score),[18],0.131
same,glycan array binding signal (z-score),[19],-0.42
same,glycan array binding signal (z-score),[20],-0.021
same,glycan array binding signal (z-score),[21],-0.264
same,glycan array binding signal (z-score),GlcNAc(b1-3)GalNAc,-0.361
same,glycan array binding signal (z-score),GlcNAc(b1-3)Man,-0.162
same,glycan array binding signal (z-score),[22],-0.607
same,glycan array binding signal (z-score),[23],-0.071
same,glycan array binding signal (z-score),[24],-0.416
same,glycan array binding signal (z-score),[25],0.058
same,glycan array binding signal (z-score),GlcNAc(b1-4)GlcNAc,-0.167
same,glycan array binding signal (z-score),[26],-0.47
same,glycan array binding signal (z-score),[27],0.055
same,glycan array binding signal (z-score),[28],-0.21
same,glycan array binding signal (z-score),[29],-0.082
same,glycan array binding signal (z-score),[30],-0.168
same,glycan array binding signal (z-score),GlcNAc(b1-6)GalNAc,-0.334
same,glycan array binding signal (z-score),[31],-0.068
same,glycan array binding signal (z-score),Kdn(a2-3)Gal(b1-3)GalNAc,-0.183
same,glycan array binding signal (z-score),Kdn(a2-3)Gal(b1-3)GlcNAc,0.14
same,glycan array binding signal (z-score),Kdn(a2-3)Gal(b1-4)Glc,-0.944
same,glycan array binding signal (z-score),Kdn(a2-3)Gal(b1-4)GlcNAc,0.124
same,glycan array binding signal (z-score),[32],-0.398
same,glycan array binding signal (z-score),Kdn(a2-6)Gal(b1-4)GlcNAc,-0.364
same,glycan array binding signal (z-score),[33],0.036
same,glycan array binding signal (z-score),[34],-0.259
same,glycan array binding signal (z-score),Man(a1-2)Man(a1-3)Man,-0.175

# From the supplement of paper PMC8728848
